Assay results from ChEMBL document CHEMBL3751743, “Synthesis and anti-cancer screening of novel heterocyclic-(2H)-1,2,3-triazoles as potential anti-cancer agents” (Medchemcomm, 2015).

System: NCI-H322M
Conditions: Homo sapiens, 48 h

| Compound | GI50 |
| --- | --- |
| COc1cc(-c2nn(C)nc2-c2cc3ccccc3s2)cc(OC)c1OC | 1.26 µM |
| COc1cc(-c2n[nH]nc2-c2cc3ccccc3s2)cc(OC)c1OC | < 0.01 µM |
| COc1cc(OC)cc(-c2n[nH]nc2-c2c[nH]c3ccccc23)c1 | 40.7 µM |
| COc1ccc(-c2n[nH]nc2-c2csc3ccccc23)cc1OC | 7.79 µM |
